# Data reported in ChEMBL document CHEMBL5606458, “ASAP - ZIKV NS2B-NS3 protease fluorescence single point” (2024).
# Among all 2,700 compounds or so, about 160 (5.9%) showed an effect of 50% or more. The list shows a part of the results.
# Target: Nonstructural protein 3 (Zika virus) (UniProt A0A024AXB9)
# [1] = PRVABC59, Concentration 15.0 uM, Number of replicates 1.0
# [2] = PRVABC59, Concentration 50.0 uM, Number of replicates 1.0
# Sequence of UniProt A0A024AXB9 (A0A024AXB9 as listed by the source): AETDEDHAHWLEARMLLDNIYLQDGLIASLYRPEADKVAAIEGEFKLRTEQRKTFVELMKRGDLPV
compound,measurement,setting,value
Cn1cc(NC(=O)c2ccccc2C(F)(F)F)c(-c2ccc3cn[nH]c3c2)n1,inhibition,"PRVABC59, Concentration 49.5 uM, Number of replicates 2.0, Standard deviation 2.892317195229066 %",0.121%
same,inhibition,"PRVABC59, Concentration 99.01 uM, Number of replicates 2.0, Standard deviation 1.6799902430178184 %",1.23%
same,inhibition,"PRVABC59, Concentration 198.0 uM, Number of replicates 2.0, Standard deviation 2.235789830147722 %",-1.51%
Cn1cc(NS(=O)(=O)c2ccc(Oc3ccccc3)cc2)cn1,inhibition,"PRVABC59, Concentration 49.5 uM, Number of replicates 2.0, Standard deviation 0.025441439341419052 %",1.71%
same,inhibition,"PRVABC59, Concentration 99.01 uM, Number of replicates 2.0, Standard deviation 1.5264829887372622 %",5.19%
same,inhibition,"PRVABC59, Concentration 198.0 uM, Number of replicates 2.0, Standard deviation 1.5900859548880821 %",9.41%
O=C(NCCCN1CCS(=O)(=O)CC1)c1cc(Cl)ccc1NS(=O)(=O)c1ccc(Oc2ccccc2Cl)cc1,inhibition,[1],-0.607%
O=Cc1ccc(N2CCC(C(=O)N3CCN(c4ccc(O)cc4)CC3)CC2)cc1,inhibition,[2],37%
OB1CCc2ccc(N3CC[C@@H](O)C3)cc2O1,inhibition,"PRVABC59, Concentration 49.5 uM, Number of replicates 2.0, Standard deviation 2.057854186079089 %",-1.96%
same,inhibition,"PRVABC59, Concentration 99.01 uM, Number of replicates 2.0, Standard deviation 0.9026496136637511 %",-4.87%
O=C(c1cc(Cl)ccc1NS(=O)(=O)c1ccc(Oc2ccccc2Cl)cc1)N(Cc1ccccc1)[C@H]1CCS(=O)(=O)C1,inhibition,[1],18.6%
Cn1ccnc1[C@@H](O)C1CCN(C(=O)C2CCN(c3ccc(C=O)cc3)CC2)CC1,inhibition,[2],25.2%
c1ccn2c(CNCC3CCOCC3)nnc2c1,inhibition,"PRVABC59, Concentration 49.5 uM, Number of replicates 2.0, Standard deviation 1.8796463523944162 %",-1.69%
same,inhibition,"PRVABC59, Concentration 99.01 uM, Number of replicates 2.0, Standard deviation 2.0631141970669455 %",-2.09%
same,inhibition,"PRVABC59, Concentration 198.0 uM, Number of replicates 2.0, Standard deviation 1.9030296768293513 %",-4.01%
COc1ccc(CN(C)C(=O)c2cc(Cl)ccc2NS(=O)(=O)c2ccc(Oc3ccccc3Cl)cc2)c(OC)c1,inhibition,[1],10.2%
Cc1nn(CC(=O)Nc2ccc(F)cc2)cc1C1CCNCC1,inhibition,"PRVABC59, Concentration 49.5 uM, Number of replicates 2.0, Standard deviation 0.8989522392312843 %",-1.55%
same,inhibition,"PRVABC59, Concentration 99.01 uM, Number of replicates 2.0, Standard deviation 0.7622452693103791 %",0.347%
same,inhibition,"PRVABC59, Concentration 198.0 uM, Number of replicates 2.0, Standard deviation 0.8513118861917833 %",3.02%
C[C@]12CC3CC(NC(=O)C4CCN(c5ccc(C=O)cc5)CC4)(C1)C[C@](C)(C3)C2,inhibition,[2],29.3%
CNC(=O)[C@@H](C)CNS(=O)(=O)c1ccc(Oc2ccccc2Cl)cc1,inhibition,"PRVABC59, Concentration 49.5 uM, Number of replicates 2.0, Standard deviation 1.6230518289473026 %",-1.63%
same,inhibition,"PRVABC59, Concentration 99.01 uM, Number of replicates 2.0, Standard deviation 0.17641861567168832 %",2.05%
same,inhibition,"PRVABC59, Concentration 198.0 uM, Number of replicates 2.0, Standard deviation 0.3217045344601375 %",6.39%
O=C(CNC(=O)c1cc(Cl)ccc1NS(=O)(=O)c1ccc(Oc2ccccc2Cl)cc1)NCC(F)(F)F,inhibition,[1],-2.31%
CN1CCN(Cc2cccc(CNC(=O)C3CCN(c4ccc(C=O)cc4)CC3)c2)CC1,inhibition,"PRVABC59, Concentration 10.0 uM, Number of replicates 1.0",20.2%
Cc1cnccc1NC(=O)c1csc(-c2ccco2)n1,inhibition,"PRVABC59, Concentration 49.5 uM, Number of replicates 2.0, Standard deviation 1.7557463767431223 %",-2.24%
same,inhibition,"PRVABC59, Concentration 99.01 uM, Number of replicates 2.0, Standard deviation 0.7246370463282292 %",-1.2%
same,inhibition,"PRVABC59, Concentration 198.0 uM, Number of replicates 2.0, Standard deviation 0.8703816598057346 %",0.479%
O=Cc1ccc(N2CCC(C(=O)Nc3ccc(Cl)c(Cl)c3)CC2)cc1,inhibition,[2],22.8%
Cc1ncc(CO)c(CNC(=O)c2cc(Cl)ccc2NS(=O)(=O)c2ccc(Oc3ccccc3Cl)cc2)c1O,inhibition,[1],3.51%
O=Cc1ccc(N2CCC(C(=O)N3CCN(CC4CCCCC4)CC3)CC2)cc1,inhibition,[2],18.8%
CCCN(C[C@H](O)COc1ccccc1C(=O)CCc1ccccc1)C(=O)c1cc(Cl)ccc1NS(=O)(=O)c1ccc(Oc2ccccc2Cl)cc1,inhibition,[1],18.5%
COc1cc(Cl)c(C)cc1NC(=O)c1cc(Cl)ccc1NS(=O)(=O)c1ccc(Oc2ccccc2Cl)cc1,inhibition,[1],22.4%
O=C(c1cc(Cl)ccc1NS(=O)(=O)c1ccc(Oc2ccccc2Cl)cc1)N(Cc1ccccn1)Cc1ccccn1,inhibition,[1],19.2%
C[C@@H](CCNC(=O)C1CCN(c2ccc(C=O)cc2)CC1)N1CCOCC1,inhibition,[2],20.2%
CC1(C)[C@H]2CC[C@]1(C)[C@H](NC(=O)C1CCN(c3ccc(C=O)cc3)CC1)C2,inhibition,[2],-4.03%
CNC(=O)c1nc(C)c(C)c(N2CC[C@@H](NC(=O)[C@H]3CCCc4[nH]cnc43)C2)n1,inhibition,"PRVABC59, Concentration 49.5 uM, Number of replicates 2.0, Standard deviation 3.6106463334749126 %",1.16%
same,inhibition,"PRVABC59, Concentration 99.01 uM, Number of replicates 2.0, Standard deviation 0.9072077110365072 %",-0.124%
same,inhibition,"PRVABC59, Concentration 198.0 uM, Number of replicates 2.0, Standard deviation 0.929433261542848 %",0.354%
Cc1cccc(C)c1NC(=O)CN1CCN(C(=O)C2CCN(c3ccc(C=O)cc3)CC2)CC1,inhibition,[2],19.9%
NCc1cccc(NC(=O)[C@@H](NC(=O)OCc2ccccc2)c2ccccc2)c1,inhibition,"PRVABC59, Concentration 49.5 uM, Number of replicates 2.0, Standard deviation 1.7037965084433824 %",2.16%
same,inhibition,"PRVABC59, Concentration 99.01 uM, Number of replicates 2.0, Standard deviation 2.2842108323836983 %",4.7%
same,inhibition,"PRVABC59, Concentration 198.0 uM, Number of replicates 2.0, Standard deviation 0.6006977898141231 %",10.7%
O=C(NC1CCN(CC2CCOCC2)CC1)c1cc(Cl)ccc1NS(=O)(=O)c1ccc(Oc2ccccc2Cl)cc1,inhibition,[1],-6.87%
O=C(NCCc1nnc[nH]1)[C@@]1(c2ccc(F)cc2)CCCNC1,inhibition,"PRVABC59, Concentration 50.0 uM, Number of replicates 2.0, Standard deviation 2.5634207646858784 %",-0.912%
same,inhibition,"PRVABC59, Concentration 100.0 uM, Number of replicates 2.0, Standard deviation 2.4352497117001874 %",-0.194%
same,inhibition,"PRVABC59, Concentration 200.0 uM, Number of replicates 2.0, Standard deviation 1.6405892590532312 %",0.129%
C[C@@H]1CN(C2CCN(C(=O)c3cc(Cl)ccc3NS(=O)(=O)c3ccc(Oc4ccccc4Cl)cc3)CC2)C[C@H](C)O1,inhibition,[1],-1.5%
O=C(c1cc(Cl)ccc1NS(=O)(=O)c1ccc(Oc2ccccc2Cl)cc1)N1CCn2c(nnc2C(F)(F)F)C1,inhibition,[1],6.88%
COC(=O)c1cncc(C(=O)Nc2ccncc2C)c1,inhibition,"PRVABC59, Concentration 49.5 uM, Number of replicates 2.0, Standard deviation 3.334315410247663 %",-7.09%
same,inhibition,"PRVABC59, Concentration 99.01 uM, Number of replicates 2.0, Standard deviation 3.5682000737521973 %",-6.79%
same,inhibition,"PRVABC59, Concentration 198.0 uM, Number of replicates 2.0, Standard deviation 3.2821258106735933 %",-6.5%
O=C(N[C@@H]1CCCN(Cc2ccccc2)C1)c1cc(Cl)ccc1NS(=O)(=O)c1ccc(Oc2ccccc2Cl)cc1,inhibition,[1],10.8%
O=C(Nc1ccccc1)c1cc(Cl)ccc1NS(=O)(=O)c1ccc(Oc2ccccc2Cl)cc1,inhibition,[1],54.2%
O=C(c1cc(Cl)ccc1NS(=O)(=O)c1ccc(Oc2ccccc2Cl)cc1)N1CCN(c2nsc3ccccc23)CC1,inhibition,[1],13%
CC(C)Nc1nc2ccc(C(=O)Nc3cc(-c4nccn4C)n[nH]3)cc2[nH]1,inhibition,"PRVABC59, Concentration 49.5 uM, Number of replicates 2.0, Standard deviation 1.5841940362005018 %",0.48%
same,inhibition,"PRVABC59, Concentration 99.01 uM, Number of replicates 2.0, Standard deviation 1.722618743079317 %",2.37%
same,inhibition,"PRVABC59, Concentration 198.0 uM, Number of replicates 2.0, Standard deviation 0.5383180937944834 %",5.77%
O=c1c2ccccc2ncn1C1CN(Cc2c[nH]c3ccccc23)C1,inhibition,"PRVABC59, Concentration 99.01 uM, Number of replicates 2.0, Standard deviation 5.715692935887529 %",1.21%
same,inhibition,"PRVABC59, Concentration 198.0 uM, Number of replicates 2.0, Standard deviation 4.94445112673456 %",8.06%
COC(=O)[C@@H](C)NC(=O)Cc1cc(OC)nc(N2CCNCC2)n1,inhibition,"PRVABC59, Concentration 49.5 uM, Number of replicates 2.0, Standard deviation 2.535411528598933 %",0.703%
same,inhibition,"PRVABC59, Concentration 99.01 uM, Number of replicates 2.0, Standard deviation 2.9676017926474083 %",2.6%
same,inhibition,"PRVABC59, Concentration 198.0 uM, Number of replicates 2.0, Standard deviation 1.32465504962272 %",4.63%
CNC(=O)c1cc(Cl)ccc1NS(=O)(=O)c1cccc(CN(C)C)c1,inhibition,"PRVABC59, Concentration 49.5 uM, Number of replicates 2.0, Standard deviation 0.5541621056740927 %",-3.61%
same,inhibition,"PRVABC59, Concentration 99.01 uM, Number of replicates 2.0, Standard deviation 0.1639655706358715 %",-4.04%
same,inhibition,"PRVABC59, Concentration 198.0 uM, Number of replicates 2.0, Standard deviation 0.3735923625988694 %",-6.78%
CN(Cc1ccc(Cl)cc1)C(=O)c1cc(Cl)ccc1NS(=O)(=O)c1ccc(Oc2ccccc2Cl)cc1,inhibition,[1],31.9%
O=Cc1ccc(N2CCC(C(=O)NC3C4CC5CC(C4)CC3C5)CC2)cc1 (stereo not given),inhibition,[2],-2.57%
COC(=O)c1ccc(F)c(Cn2ncc(C3CCNCC3)c2C)c1,inhibition,"PRVABC59, Concentration 49.5 uM, Number of replicates 2.0, Standard deviation 3.4042226177050456 %",1.17%
same,inhibition,"PRVABC59, Concentration 99.01 uM, Number of replicates 2.0, Standard deviation 3.3683349133728075 %",3.29%
same,inhibition,"PRVABC59, Concentration 198.0 uM, Number of replicates 2.0, Standard deviation 3.1119928074014256 %",8.25%
O=C(Nc1cnn(-c2ccccc2)c(=O)c1Cl)c1cc(Cl)ccc1NS(=O)(=O)c1ccc(Oc2ccccc2Cl)cc1,inhibition,[1],22%
O=Cc1ccc(N2CCC(C(=O)Nc3ccccc3Oc3ccccc3)CC2)cc1,inhibition,[2],24.4%
O=Cc1ccc(N2CCC(C(=O)Nc3ccccc3Sc3ccccc3)CC2)cc1,inhibition,[2],23.7%
CC(C)CCN(CCC(C)C)C(=O)C1CCN(c2ccc(C=O)cc2)CC1,inhibition,[2],25.1%
Cc1cc(CO)c2cccc(Cc3cccc(C(=O)Nc4cccc(C(N)=O)c4)c3)c2n1,inhibition,"PRVABC59, Concentration 49.95 uM, Number of replicates 2.0, Standard deviation 0.1992514179713741 %",-3.36%
same,inhibition,"PRVABC59, Concentration 99.9 uM, Number of replicates 2.0, Standard deviation 0.4299637092619174 %",-0.56%
Cc1ccc(NC(=O)c2cc(Cl)ccc2NS(=O)(=O)c2ccc(Oc3ccccc3Cl)cc2)cc1Br,inhibition,[1],43.3%
CC(C)(C)OC(=O)NC1CN(C(=O)c2cc(Cl)ccc2NS(=O)(=O)c2ccc(Oc3ccccc3Cl)cc2)C1,inhibition,[1],0.402%
CCOC(=O)[C@H]1CCCN(C(=O)C2CCN(c3ccc(C=O)cc3)CC2)C1,inhibition,[2],23.3%
Cc1ccc([N+](=O)[O-])c(NC(=O)C2CCN(c3ccc(C=O)cc3)CC2)c1,inhibition,[2],22.9%
C[C@@H]1CN(CCNC(=O)c2cc(Cl)ccc2NS(=O)(=O)c2ccc(Oc3ccccc3Cl)cc2)C[C@H](C)O1,inhibition,[1],23.9%
N#Cc1cccc(NC(=O)c2cccc(OCc3c(Cl)cccc3Cl)c2)c1,inhibition,"PRVABC59, Concentration 49.5 uM, Number of replicates 2.0, Standard deviation 1.7651619405536074 %",6.21%
same,inhibition,"PRVABC59, Concentration 99.01 uM, Number of replicates 2.0, Standard deviation 1.834624667346594 %",10%
same,inhibition,"PRVABC59, Concentration 198.0 uM, Number of replicates 2.0, Standard deviation 2.6293560952864428 %",8.42%
